Experimental data from the supplement of paper PMC4166925.
± gives the standard deviation of the averaged measurements. Whole data set: some 33,000 sequences, median “E-score (dimensionless, -0.5 to 0.5)” near -0.049, cut for the highest 2% near 0.37. The list shows a part of the results.

test system: T1, PmTbr T-box DNA-binding domain (GST fusion); experiment: PBM E-score of 8-mer (E-score (dimensionless, -0.5 to 0.5)); Tbr is Tbrain of the sea star Patiria miniata (Pm) or the sea urchin Strongylocentrotus purpuratus (Sp); higher = stronger binding preference; most listed sequences are background and not binding sites; conditions: the construct has about 5 more residues each side
T1 sequence: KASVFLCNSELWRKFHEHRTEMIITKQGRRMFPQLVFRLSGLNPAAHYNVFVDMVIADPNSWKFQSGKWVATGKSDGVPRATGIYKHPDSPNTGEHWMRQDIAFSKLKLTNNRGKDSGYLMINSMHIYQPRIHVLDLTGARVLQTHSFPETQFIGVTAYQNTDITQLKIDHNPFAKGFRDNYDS
In short: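 GST-fused Tbr T-box DNA-binding domains (the whole T-box plus about five flanking residues) were expressed in BL21 E. coli at 20 °C and purified by glutathione affinity chromatography. Universal Agilent oligonucleotide arrays were made double-stranded by primer extension, incubated with 200 nM protein in PBS (pH 7.5), then scanned and quantified. Every ungapped 8-mer was scored from probe intensities. The Universal PBM Analysis Suite gave each word an enrichment E-score, averaged over duplicate arrays.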

| Sequence | PBM E-score of 8-mer |
| --- | --- |
| ACATTCTG | 0.0382 ± 0.084 |
| CAAGAGTC | -0.2167 ± 0.0016 |
| GTTTGTAA | 0.0584 ± 0.043 |
| CCCAGATC | -0.0681 ± 0.1 |
| ATGGAAAC | -0.0624 ± 0.0055 |
| CACTGGGG | -0.0818 ± 0.0066 |
| CAGACAAA | -0.0784 ± 0.036 |
| GCATAACC | -0.069 ± 0.08 |
| ATACCCGG | -0.0648 ± 0.0025 |
| GCGTCGTA | -0.18 ± 0.016 |
| CCTGCAGA | -0.0394 ± 0.048 |
| CACAATGC | -0.04 ± 0.053 |
| AACCGCCC | -0.185 ± 0.021 |
| ATGAATCG | -0.0917 ± 0.0039 |
| GAAAGCAC | 0.0502 ± 0.04 |
| AGCGGGAC | -0.0638 ± 0.055 |
| GATTACGA | -0.00232 ± 0.07 |
| GCAGTGGA | -0.223 ± 0.018 |
| ACACTTAG | 0.416 ± 0.0068 |
| GACTGCCC | -0.219 ± 0.015 |
| GATGGAGC | 0.0899 ± 0.0051 |
| AAGGCTAA | -0.164 ± 0.031 |

| Sequence | PBM E-score of 8-mer |
| --- | --- |
| AGTTCTTC | -0.293 ± 0.02 |
| ATCTTTTG | -0.2448 ± 0.0018 |
| ACTACACG | 0.161 ± 0.028 |
| CGCTTCAA | 0.0949 ± 0.078 |
| CCTTTCGA | -0.06 ± 0.02 |
| GCGCTTTA | -0.0283 ± 0.047 |
| CACGGCTA | 0.077 ± 0.043 |
| ACGAGAGC | 0.0227 ± 0.0097 |
| AGGGCTAA | -0.116 ± 0.051 |
| ACTAGCTA | 0.0589 ± 0.011 |
| TCGGACCA | -0.167 ± 0.0061 |
| CTATGACC | -0.075 ± 0.029 |
| AACTATCG | 0.0405 ± 0.087 |
| GCGAGATA | 0.11 ± 0.011 |
| GACTAGGA | -0.0612 ± 0.068 |
| AGTTACTA | -0.193 ± 0.023 |
| CGATCAAG | -0.0546 ± 0.0099 |
| CTGGCCTA | -0.178 ± 0.016 |
| GAGCAACA | 0.135 ± 0.12 |
| GCGATAAA | 0.242 ± 0.077 |
| CGGCGAGC | -0.229 ± 0.024 |
| ACTGGGAG | -0.1443 ± 0.0012 |

| Sequence | PBM E-score of 8-mer |
| --- | --- |
| TGACGGAA | 0.115 ± 0.0047 |
| AGAGCCCT | -0.258 ± 0.044 |
| CGAAGACA | 0.217 ± 0.0079 |
| AGGCACTG | -0.187 ± 0.04 |
| CCTGCAAG | -0.00101 ± 0.0029 |
| CCACTGGC | 0.162 ± 0.015 |
| GCAAATTA | -0.0357 ± 0.0071 |
| AACGCGCT | 0.228 ± 0.015 |
| AAGTTGCC | 0.185 ± 0.0098 |
| ATGGCCCG | -0.119 ± 0.027 |
| AAGGCTCA | -0.202 ± 0.062 |
| AGGGGTCA | -0.103 ± 0.048 |
| CATTCGTA | -0.0434 ± 0.094 |
| TACTCTAA | -0.1712 ± 0.00056 |
| ACATCATG | -0.08081 ± 0.00078 |
| GCTGACAC | 0.398 ± 0.013 |
| CAGGCGAA | -0.101 ± 0.048 |
| AGCGGGGG | -0.072 ± 0.0086 |
| AATAGTAA | -0.3255 ± 0.0021 |
| ATGTTGGC | 0.0657 ± 0.011 |
| AAGTGACC | 0.185 ± 0.041 |
| CGAAGGCA | 0.0921 ± 0.055 |

| Sequence | PBM E-score of 8-mer |
| --- | --- |
| CTCTTGGC | -0.00769 ± 0.04 |
| CGCGTCAC | 0.294 ± 0.018 |
| CCTTTGAC | -0.055 ± 0.073 |
| CCAACTTA | -0.0514 ± 0.045 |
| GAAGCTGC | 0.156 ± 0.04 |
| ATTTCAGG | 0.0227 ± 0.019 |
| GCCATTGA | -0.0667 ± 0.06 |
| AAGACTAA | -0.0794 ± 0.0078 |
| AATGTGAG | 0.206 ± 0.041 |
| GTTTAAAA | -0.219 ± 0.036 |
| ATGTCACA | 0.375 ± 0.013 |
| TGATGGAA | 0.116 ± 0.052 |
| AGAATGCG | 0.107 ± 0.031 |
| AGCAGCCG | -0.0704 ± 0.04 |
| ATCTCGCA | 0.317 ± 0.017 |
| TCAGCCAA | -0.125 ± 0.052 |
| CGACTGCC | 0.0131 ± 0.019 |
| ATTAAACG | -0.0973 ± 0.063 |
| GACCTTCA | -0.0991 ± 0.0084 |
| ACAGCTCG | 0.174 ± 0.04 |
| CTAGTAAA | -0.159 ± 0.08 |
| ACAGGCGA | 0.199 ± 0.062 |

| Sequence | PBM E-score of 8-mer |
| --- | --- |
| CTGGCTTC | -0.171 ± 0.062 |
| ACGAAAAC | 0.0807 ± 0.018 |
| CTATCGTC | -0.0403 ± 0.021 |
| ATCCCAAC | -0.171 ± 0.1 |
| CAAAACTG | 0.142 ± 0.074 |
| AAAGTCGT | 0.0432 ± 0.056 |
| AAGCGGCT | -0.13 ± 0.072 |
| AAGGACGT | -0.0609 ± 0.036 |
| TATGGGGA | -0.156 ± 0.065 |
| ACATGCCG | -0.0613 ± 0.045 |
| ATCATAGA | -0.219 ± 0.029 |
| TAGCGCTA | 0.325 ± 0.016 |
| ATCGGTAC | -0.231 ± 0.006 |
| AATCGAGC | -0.0356 ± 0.036 |
| CTGACGGA | 0.0968 ± 0.011 |
| ACACCAAG | 0.35 ± 0.005 |
| CCAAGGGA | 0.0414 ± 0.029 |
| AACTTCTG | 0.0659 ± 0.019 |
| CCGCGTAC | -0.0889 ± 0.065 |
| ACCGACGC | 0.0942 ± 0.0072 |
| CCTTCACA | 0.395 ± 0.014 |
| CACGGCGA | 0.0573 ± 0.037 |
